Reference: patent US6130250A, “Veterinary use of a pleuromutilin derivative” (priority 1996, dated 2000)

How the values were obtained:
[1] = system: M. hyopneumoniae; assay: MIC, liquid medium, field isolates and type strain J of M. hyopneumoniae; type: cell-based, Mycoplasma hyopneumoniae; conditions: for MIC: Mesomycoplasma hyopneumoniae
Protocol: Ten field isolates from outbreaks of enzootic pneumonia in different herds and the type strain "J" are included in the test. […] The test for minimal inhibitory concentration (MIC) is performed in liquid medium ([…]. et al., Acta Vet. […] The mycoplasmas are inoculated in 10 fold dilutions, and the cultures read visually for growth using tubes seeded with 10^2 to 10^4 colour forming units. […] MIC is determined as the lowest concentration of test compound showing inhibition of growth compared to control ([…]. and Szancer, J., Acta Vet. Scand. 35 [1994] 389-394).

[2] = system: mycoplasma isolates of chicken origin; assay: MIC, serial microdilution, mycoplasma isolates of chicken origin; type: cell-based
Protocol: (§1) The antimicrobial effect of vainemulin hydrochloride is determined by means of a standard serial microdilution technique in comparison to tylosin (Tylan soluble) and tiamulin hydrogen fumarate.
(§2) 12.8 mg of the test compound are dissolved in 100 ml of distilled water to obtain a stock solution which is stored at -20° C. until used. Mycoplasma gallisepticum reference strain used are X95, S6 Holland, S6 Bench (England), MS-16 (Japan), MK-7 (Japan) and 1226, and various fresh field isolates.
(§3) The antibiotic-sensitivity of the strains is examined using a modified microbroth dilution procedure (Stipkovits et al., Vet. Microbiol. 15 [1987] 65-70). Testing medium is added (100 μl) to all the wells of microtitration plates, using doubling dilutions of antibiotics. The inoculum (100 μl) contains 10^5 cfu/ml. The plates are sealed with sellotape and incubated at 37° C. over a period of 3 days. The lowest concentration of the antibiotic completely preventing colour change of the media at the third day reading is the minimal inhibitory concentration (MIC). The wells without colour range are checked for viability of mycoplasmas by plating them on agar medium. All Mycoplasma strains are propagated in 10 ml of medium B (Ern.o slashed., H. and Stipkovits, L., Acta Vet. Scand. 14 [1973] 436-449). After incubation at 37° C. until early log phase of growth, 1 ml aliquots of culture are dispensed in tubes as seed cultures and stored at -20° C. The glucose fermenting Mycoplasma strains are tested in modified medium Bg supplemented with 1% glucose (pH 7.8), the arginine hydrolysing strains in medium Ba (Ern.o slashed., H. and Stipkovits, L., supra, 450-463) containing 1% arginine (pH 7.3) and the glucose- and arginine-negative strains in medium B including 1% triphenyltetrazolium chloride.
(§4) The average MIC values for different strain groups and antibiotics taking into consideration dilutions are calculated.

[3] = system: M. hyopneumoniae; assay: MIC, microtitre broth, ten field isolates and type strain J of M. hyopneumoniae; type: cell-based, Mycoplasma hyopneumoniae; conditions: for MIC / MIC50 / MIC90: Mesomycoplasma hyopneumoniae
Source text: Tissue samples are obtained from the lungs of pigs from various enzootic pneumonia of pigs (EPP)-affected herds. Samples are shipped on dry ice for culture. M. hyopneumoniae is recovered from freshly sectioned lung tissue by direct culture onto Mycoplasma Experience agar. This technique allows the distinctive colonies of M. hyopneumoniae to be recognised and readily separated, by cloning from other faster growing mycoplasma species such as Mycoplasma hyorhinis, often present in EPP lung samples. Isolates are subcultured and identified by disc growth inhibition using specific rabbit antiserum raised to M. hyopneumoniae NCTC 10110.
Cultures for antibiotic challenge are prepared in Mycoplasma Experience broth, incubated aerobically at 36° C.
A commercially available solid medium (Mycoplasma Experience Ltd.) is used to isolate M. hyopneumoniae from lung tissue. A liquid medium (Mycoplasma Experience Ltd.) containing phenol red and glucose (pH 7.6) is used for the MIC assays.
Stock solutions of test compound are prepared at 1 mg/ml concentration in deionised water, sterilised by filtration through 0.2μ pore size membrane filters (Sartorius Minisart, N) and stored at -20° C. For use in the MIC tests the stock solutions are diluted in liquid medium to double the final concentrations required. MIC tests are carried out according to the method of Tanner & Wu, Avian Diseases 36 (1992) 714-717. Actively growing challenge cultures are prepared either from 1 ml aliquots of broth cultures stored at -70° C. or from cultures stored on agar at -70° C. The challenge cultures are diluted to give a target titre of 10^3 to 10^5 colour changing units/ml. 0.1 ml aliquots of challenge inocula are mixed with 0.1 ml aliquots of antibiotic dilution in microtitre wells. Each microtitre plate contains uninoculated media at pH 6.8 (M. hyopneumoniae) (end point control) and antibiotic-free inoculated challenge controls. All plates are sealed with adhesive film and incubated aerobically at 36° C. MICs are recorded when the colour change in the challenge control wells match the pH of the end point control. The MIC is the lowest concentration showing no colour change.

[4] = system: Mycoplasma gallisepticum; assay: MIC, serial microdilution, Mycoplasma gallisepticum reference strains; type: cell-based; conditions: Mycoplasmoides gallisepticum, read-out: MIC
Protocol: as §1, §2, §3, §4

[5] = final reading 10-14 days, Table 1 line 1 (1 strain), read-out: MIC final
[6] = final reading 10-14 days, Table 1 line 2 (1 strain), read-out: MIC final
[7] = final reading 10-14 days, Table 1 line 3 (3 strains), read-out: MIC final
[8] = final reading 10-14 days, Table 1 line 4 (5 strains, comprises type strain), read-out: MIC final
[9] = final reading 10-14 days, Table 1 line 5 (1 strain), read-out: MIC final
[10] = initial reading 2-4 days, Table 1 line 1 (1 strain), read-out: MIC initial
[11] = initial reading 2-4 days, Table 1 line 2 (1 strain), read-out: MIC initial
[12] = initial reading 2-4 days, Table 1 line 3 (3 strains), read-out: MIC initial
[13] = initial reading 2-4 days, Table 1 line 4 (5 strains, comprises type strain), read-out: MIC initial
[14] = initial reading 2-4 days, Table 1 line 5 (1 strain), read-out: MIC initial
[15] = read-out: MIC range (sensitivity), avian field isolates
[16] = NCTC10110, Type Strain J (NCTC 10110), read-out: MIC
[17] = field strains (n = 10), read-out: MIC range

Structure (SMILES)	MIC [1, 5]	MIC [1, 6]	MIC [1, 7]	MIC [1, 8]	MIC [1, 9]	MIC [1, 10]	MIC [1, 11]	MIC [1, 12]	MIC [1, 13]	MIC [1, 14]	MIC ([2]; isolate 20224, read-out: MIC)	MIC ([2]; isolate 20312, read-out: MIC)	MIC ([2]; isolate 20472, read-out: MIC)	MIC ([2]; isolate 20473, read-out: MIC)	MIC ([2]; isolate 20474, read-out: MIC)	MIC ([2]; isolate 20475, read-out: MIC)	MIC [2, 15]	MIC [3, 16]	MIC50 ([3]; field strains (n = 10))	MIC90 ([3]; field strains (n = 10))	also measured
C=C[C@]1(C)C[C@@H](OC(=O)CSCCN(CC)CC)[C@]2(C)[C@H](C)CC[C@]3(CCC(=O)[C@H]32)[C@@H](C)[C@@H]1O [tiamulin hydrogen fumarate]	0.05 µg/mL	0.1 µg/mL	0.1 µg/mL	0.1 µg/mL	0.1 µg/mL	0.025 µg/mL	0.025 µg/mL	0.05 µg/mL	0.05 µg/mL	0.1 µg/mL	1 µg/mL	0.25 µg/mL	1 µg/mL	0.5 µg/mL	1 µg/mL	0.5 µg/mL	0.06 to 1 µg/mL	0.1 µg/mL	0.025 µg/mL	0.05 µg/mL	MIC ([2]; isolate 20002, read-out: MIC): 0.25 µg/mL; MIC ([2]; isolate 20174, read-out: MIC): 0.25 µg/mL; MIC ([2]; isolate 20175, read-out: MIC): 0.5 µg/mL; MIC ([2]; isolate 20176, read-out: MIC): 0.25 µg/mL; MIC ([2]; isolate 20177, read-out: MIC): 0.25 µg/mL; MIC ([2]; isolate 20178, read-out: MIC): 0.5 µg/mL; MIC [3, 17]: 0.01 to 0.05 µg/mL; MIC ([4]; strain 1226): 0.25 µg/mL; MIC ([4]; strain Bench): 0.0312 µg/mL; MIC ([4]; strain Holland): 0.0312 µg/mL; MIC ([4]; strain MK-7): 0.0312 µg/mL; MIC ([4]; strain MS-16): 0.0312 µg/mL
C=C[C@]1(C)C[C@@H](OC(=O)CSC(C)(C)CNC(=O)[C@H](N)C(C)C)[C@]2(C)[C@H](C)CC[C@]3(CCC(=O)[C@H]32)[C@@H](C)[C@@H]1O [valnemulin hydrochloride, 14-O-[1-[(R)-2-amino-3-methylbutyrylamino]-2-methylpropan-2-ylthioacetyl]mutilin]	0.0025 µg/mL	0.0025 µg/mL	0.0025 µg/mL	0.0025 µg/mL	0.0025 µg/mL	0.001 µg/mL	0.001 µg/mL	0.001 µg/mL	0.0025 µg/mL	0.0025 µg/mL	0.0312 µg/mL	0.0312 µg/mL	0.0312 µg/mL	0.0312 µg/mL	0.0312 µg/mL	0.0312 µg/mL	0.03 to 0.06 µg/mL	0.0025 µg/mL	0.0005 µg/mL	0.001 µg/mL	susceptibility of M. hyopneumoniae strains ([1]; all strains tested): highly susceptible; MIC times less than those for tiamulin ([1]; initial and final readings): 10-40 times; MIC ([2]; isolate 20321, read-out: MIC): 0.0312 µg/mL; MIC [3, 17]: 0.00025 to 0.001 µg/mL; susceptibility of field isolates ([3]; field isolates): highly susceptible; MIC compared with enrofloxacin ([3]; individual strains): at least five times lower; MIC ([4]; strain 1226): 0.0312 µg/mL; MIC ([4]; strain Bench): 0.0312 µg/mL; MIC ([4]; strain Holland): 0.0312 µg/mL; MIC ([4]; strain MK-7): 0.0078 µg/mL; MIC ([4]; strain MS-16): 0.0312 µg/mL

Structures can show the parent of a compound that is named as a salt. Where two headings read alike, the source gives them in different places.
